The source of these data is patent EP3442964B1, “NOVEL N-[(PYRIMIDINYLAMINO)PROPANYL]-AND N [(PYRAZINYLAMINO)PROPANYL]ARYLCARBOXAMIDES” (Boehringer Ingelheim International GmbH, priority 2016, dated 2017).

For assay [1], the target named is T1, human Orexin 1 receptor (Homo sapiens, UniProt O43613).
T1 sequence (O43613 1-425): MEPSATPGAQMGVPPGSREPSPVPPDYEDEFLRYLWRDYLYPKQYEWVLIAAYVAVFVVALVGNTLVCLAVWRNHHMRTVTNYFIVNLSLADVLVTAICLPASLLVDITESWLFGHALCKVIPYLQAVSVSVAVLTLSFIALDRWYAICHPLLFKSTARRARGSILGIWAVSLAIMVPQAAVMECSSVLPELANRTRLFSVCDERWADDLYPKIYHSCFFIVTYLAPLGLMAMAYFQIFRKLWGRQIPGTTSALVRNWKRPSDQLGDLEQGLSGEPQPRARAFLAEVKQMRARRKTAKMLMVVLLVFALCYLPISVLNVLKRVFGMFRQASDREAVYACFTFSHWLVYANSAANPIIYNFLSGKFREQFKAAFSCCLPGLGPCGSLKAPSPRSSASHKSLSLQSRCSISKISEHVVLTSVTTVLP
To be noted: for fold higher potency: versus Example 84 in WO2016/034882.

In assay [2] the target is T1, human Orexin 1 receptor. The experiment in a line: cell-based.
Setting [3] is: Assay A OX1R Kb [nM] (Orexin A concentration), 50 nM Orexin A.
The mark [4] stands for this setting: Assay A OX1R Kb [nM] (Orexin A concentration), 0.5 nM Orexin A.

SMILES strings stand for the structures.

As for `CCN(C(=O)c1cc(F)ccc1-n1nccn1)[C@@H](C)CNc1ncc(C(F)(F)F)cn1` [Example 5], at human Orexin 1 receptor [1], the “OX2R Kb/OX1R Kb” value was 425. Also, the Kb at human Orexin 1 receptor [2] (setting [3]) was found to be 0.083 nM.

With `CCN(C(=O)c1cccc(F)c1-c1ncccn1)[C@@H](C)CNc1ncc(C(F)(F)F)cn1` [Example 11], at human Orexin 1 receptor [1], the “OX2R Kb/OX1R Kb” value was found to be 1379 and the fold higher potency entry was “at least 20 fold”. The compound further returned a Kb at human Orexin 1 receptor [2] (setting [3]) of 0.014 nM.

`CCN(C(=O)c1ccc(F)cc1-n1nccn1)[C@@H](C)CNc1ncc(C(F)(F)F)cn1` [Example 2]: the “OX2R Kb/OX1R Kb” value on human Orexin 1 receptor [1] was determined as 343. The compound further registered a Kb at human Orexin 1 receptor [2] (setting [3]) of 0.188 nM.

Take `CC[C@@H](CNc1ncc(C(F)(F)F)cn1)N(C)C(=O)c1nc(C)ccc1-n1nccn1` [Example 46 in WO2016/034882]: the “OX2R Kb/OX1R Kb” value on human Orexin 1 receptor [1] turned out to be 240. The compound also yielded a Kb on human Orexin 1 receptor [2] (setting [3]) of 1.56 nM.

Consider `CCN(C(=O)c1nccnc1-c1ccccc1)[C@@H](C)CNc1ncc(C(F)(F)F)cn1` [Example 21], for which the “OX2R Kb/OX1R Kb” value at human Orexin 1 receptor [1] is given as 154. The compound further returned a Kb on human Orexin 1 receptor [2] (setting [3]) of 0.363 nM.

As for `CCN(C(=O)c1c(F)cccc1-n1nccn1)[C@@H](C)CNc1ncc(C(F)(F)F)cn1` [Example 7], on human Orexin 1 receptor [1], the “OX2R Kb/OX1R Kb” value amounted to 237. Also, the “fold more potent at OX1R” value at human Orexin 1 receptor [1] (versus Example 91 in WO2016/034882) is given as 25 fold. The compound further registered a Kb at human Orexin 1 receptor [2] (setting [3]) of 0.141 nM.

Take `CC[C@@H](CNc1ncc(C(F)(F)F)cn1)N(C)C(=O)c1nc(C)ccc1-n1cccn1` [Example 90 in WO2016/034882, reference compound]: the Kb at human Orexin 1 receptor [2] (setting [4]) was determined as 1.3 nM; on human Orexin 1 receptor [2] (setting [3]), 2.3 nM.

Take `CCN(C(=O)c1c(F)cccc1-c1ncccn1)[C@@H](C)CNc1ncc(C(F)(F)F)cn1` [Example 13]: at human Orexin 1 receptor [1], the “OX2R Kb/OX1R Kb” value came out at 670 and the fold higher potency entry is given as “at least 20 fold”. Further, the Kb at human Orexin 1 receptor [2] (setting [3]) was determined as 0.0925 nM.

In the case of `CCN(C(=O)c1ccc(F)cc1-c1ncccn1)[C@@H](C)CNc1ncc(C(F)(F)F)cn1` [Example 16], at human Orexin 1 receptor [1], the “OX2R Kb/OX1R Kb” value is 811 and the fold higher potency result is reported as “at least 20 fold”. On human Orexin 1 receptor [2] (setting [3]), this compound gave a Kb of 0.0947 nM.

As for `CC[C@@H](CNc1ncc(C(F)(F)F)cn1)N(C)C(=O)c1c(F)cccc1-n1nccn1` [Example 91 in WO2016/034882, reference compound], the “OX2R Kb/OX1R Kb” value on human Orexin 1 receptor [1] was found to be 86. The same compound gave a Kb on human Orexin 1 receptor [2] (setting [4]) of 3.63 nM.

On to `CCN(C(=O)c1cncnc1-c1ccccc1)[C@@H](C)CNc1ncc(C(F)(F)F)cn1` [Example 20], for which the “OX2R Kb/OX1R Kb” value on human Orexin 1 receptor [1] stood at 120. The compound further had a Kb at human Orexin 1 receptor [2] (setting [3]) of 0.566 nM.

Take `CC[C@@H](CNc1cnc(C(F)(F)F)cn1)N(C)C(=O)c1cc(Cl)ccc1-n1nccn1` [Example 40 in WO2016/034882, reference compound]: the “OX2R Kb/OX1R Kb” value on human Orexin 1 receptor [1] was found to be 211. This compound yielded a Kb on human Orexin 1 receptor [2] (setting [3]) of 0.18 nM.

With `CCN(C(=O)c1ccccc1-c1noc(C)n1)[C@@H](C)CNc1ncc(C(F)(F)F)cn1` [Example 14], on human Orexin 1 receptor [1], the “OX2R Kb/OX1R Kb” value was found to be 319. The same compound displayed a Kb on human Orexin 1 receptor [2] (setting [3]) of 0.138 nM.

Consider `CC[C@@H](CNc1ncc(C(F)(F)F)cn1)N(C)C(=O)c1nc(C)ccc1-c1ncccn1` [Example 84 in WO2016/034882, reference compound], for which the “OX2R Kb/OX1R Kb” value on human Orexin 1 receptor [1] worked out at 104. This compound registered a Kb on human Orexin 1 receptor [2] (setting [4]) of 2.2 nM.

For `CCN(C(=O)c1ccc(F)c(F)c1-n1nccn1)[C@@H](C)CNc1ncc(C(F)(F)F)cn1` [Example 4], the “OX2R Kb/OX1R Kb” value at human Orexin 1 receptor [1] was determined as 489. This compound also yielded a Kb on human Orexin 1 receptor [2] (setting [3]) of 0.096 nM.

`CCN(C(=O)c1nc(C)ccc1-n1cccn1)[C@@H](C)CNc1ncc(C(F)(F)F)cn1` [Example 12]: the “OX2R Kb/OX1R Kb” value on human Orexin 1 receptor [1] was 210. For the same compound, the “fold higher potency at OX1R” value on human Orexin 1 receptor [1] (versus Example 90 in WO2016/034882) is “at least 3 fold”. At human Orexin 1 receptor [2] (setting [3]), this compound registered a Kb of 0.614 nM.

`CCN(C(=O)c1cc(F)cnc1-n1nccn1)[C@@H](C)CNc1ncc(C(F)(F)F)cn1` [Example 10]: at human Orexin 1 receptor [1], the “OX2R Kb/OX1R Kb” value is on record as 949. This compound also came in with a Kb on human Orexin 1 receptor [2] (setting [3]) of 1.12 nM.

`CCN(C(=O)c1ccccc1-n1nccn1)[C@@H](C)CNc1cnc(C(F)(F)F)cn1` [Example 22]: the “OX2R Kb/OX1R Kb” value on human Orexin 1 receptor [1] came out at 366. In addition, the Kb at human Orexin 1 receptor [2] (setting [3]) was 0.0202 nM.

Consider `CCN(C(=O)c1cccc(F)c1-n1nccn1)[C@@H](C)CNc1cnc(C(F)(F)F)cn1` [Example 24], for which, on human Orexin 1 receptor [1], the “OX2R Kb/OX1R Kb” value was 709. In addition, the Kb at human Orexin 1 receptor [2] (setting [3]) was found to be 0.0141 nM.

As for `Cc1nc(C(=O)N(C)CCNc2ncc(Br)cn2)c(-c2ccc(F)cc2)s1` [Example 6 in WO03/051872, reference compound], the “OX2R Kb/OX1R Kb” value on human Orexin 1 receptor [1] is recorded as “OX2RKb/OX1R Kb = 3.4”. On human Orexin 1 receptor [2] (Assay A: OX1R Kb, 0.5 nM Orexin A concentration), this compound yielded a Kb of 30 nM.

`CCN(C(=O)c1ncccc1-c1ccccc1)[C@@H](C)CNc1ncc(C(F)(F)F)cn1` [Example 19]: the “OX2R Kb/OX1R Kb” value on human Orexin 1 receptor [1] amounted to 104. At human Orexin 1 receptor [2] (setting [3]), the Kb came out at 0.12 nM.

Consider `CCN(C(=O)c1cc(C#N)ccc1-n1nccn1)[C@@H](C)CNc1ncc(C(F)(F)F)cn1` [Example 8], for which the “OX2R Kb/OX1R Kb” value at human Orexin 1 receptor [1] is recorded as 114. Further, the Kb at human Orexin 1 receptor [2] (setting [3]) was 0.292 nM.

As for `CCN(C(=O)c1cc(F)ccc1-c1ncccn1)[C@@H](C)CNc1ncc(C(F)(F)F)cn1` [Example 15], on human Orexin 1 receptor [1], the “OX2R Kb/OX1R Kb” value came out at 577 and the fold higher potency result is given as “at least 20 fold”. Moreover, at human Orexin 1 receptor [2] (setting [3]), the Kb worked out at 0.0397 nM.

For the compound `CCN(C(=O)c1ccc(F)cc1-c1nnc(C)o1)[C@@H](C)CNc1cnc(C(F)(F)F)cn1` [Example 23], the “OX2R Kb/OX1R Kb” value at human Orexin 1 receptor [1] amounted to 398. Also, on human Orexin 1 receptor [2] (setting [3]), the Kb stood at 0.558 nM.
